Measured values reported in the antibiotic and cytotoxicity screens of Wong et al. (2023).
The list shows a part of the results.

What was measured:
HSkMC = human skeletal muscle cells; experiment: cytotoxicity call (relative viability < 0.9); conditions: 10 µM
HepG2 = experiment: cytotoxicity call (relative viability < 0.9); conditions: 10 µM
S. aureus RN4220 = experiment: growth inhibition call (relative growth <= 0.2); conditions: 50 µM

Row | Structure (SMILES) | cytotoxicity call (HSkMC) | cytotoxicity call (HepG2) | growth inhibition call (S. aureus RN4220)
1 | C#CCCC(=O)NO | inactive | inactive | inactive
2 | CC(=O)NCCCC[C@@H]1NC(=O)[C@H]2C[C@@H](C(=O)NCCCC[N+](C)(C)C)[C@@H](c3cccc(OCCO)c3)N2C1=O | inactive | inactive | inactive
3 | Nc1nc(=O)[nH]cc1F | inactive | inactive | inactive
4 | C[C@@H]1CN([C@@H](C)CO)C(=O)c2cc(NS(C)(=O)=O)ccc2O[C@@H](C)CCCCO[C@@H]1CN(C)C(=O)CCCN(C)C | inactive | inactive | inactive
5 | COc1ccc([Si](C)(C)[C@@H]2[C@@H](CCn3cc([C@H](O)c4ccccc4)nn3)O[C@]3(C(=O)N(c4ccccc4)c4ccccc43)[C@H]2C)cc1 | inactive | inactive | inactive
6 | C[C@@H]1CCCCO[C@H](CN(C)C(=O)Nc2cccc3ccccc23)[C@@H](C)CN([C@H](C)CO)C(=O)c2cc(NS(=O)(=O)c3ccc(Cl)cc3)ccc2O1 | active | inactive | inactive
7 | Cc1ccc(S(=O)(=O)N(C)C[C@@H]2Oc3ccc(NS(=O)(=O)c4ccc(F)cc4)cc3C(=O)N([C@H](C)CO)C[C@H]2C)cc1 | inactive | inactive | inactive
8 | COc1ccccc1CNC(=O)C[C@@H]1C[C@H]2c3cc(NC(=O)C4CCOCC4)ccc3O[C@H]2[C@@H](CO)O1 | inactive | inactive | inactive
9 | Cc1noc(C)c1S(=O)(=O)N(C)C[C@@H]1Oc2ccc(N(C)C)cc2CC(=O)N([C@@H](C)CO)C[C@H]1C | inactive | inactive | inactive
10 | C[C@H]1CN([C@@H](C)CO)C(=O)c2cc(NC(=O)Cc3ccccc3)ccc2O[C@@H]1CN(C)S(=O)(=O)c1ccccc1 | inactive | inactive | inactive
11 | Cn1nccc1NC(=O)COCC(=O)O | inactive | inactive | inactive
12 | C[C@H](CO)N1C[C@H](C)[C@@H](CN(C)C(=O)c2ccncc2)Oc2cc(C#C[C@@H](C)O)ccc2S1(=O)=O | inactive | inactive | inactive
13 | C[C@@H]1CCCCO[C@@H](CN(C)S(=O)(=O)c2cccs2)[C@H](C)CN([C@H](C)CO)C(=O)c2cc(NC(=O)CCC(F)(F)F)ccc2O1 | inactive | inactive | inactive
14 | COc1ccc(NC(=O)Nc2ccc3c(c2)[C@H]2C[C@@H](CC(=O)NCc4ccncc4)O[C@@H](CO)[C@H]2O3)cc1 | inactive | inactive | inactive
15 | C[C@H]1CN([C@@H](C)CO)C(=O)c2cc(N(C)C)ccc2O[C@H]1CN(C)S(C)(=O)=O | inactive | inactive | inactive
16 | O=C(C[C@H]1CC[C@H]2[C@@H](COC[C@@H](O)CN2C(=O)c2ccccc2)O1)NCCCN1CCOCC1 | inactive | inactive | inactive
17 | COc1ccc(S(=O)(=O)N(C)C[C@@H]2Oc3ccc(NS(=O)(=O)c4ccc(F)cc4)cc3CC(=O)N([C@H](C)CO)C[C@H]2C)cc1 | inactive | inactive | inactive
18 | COc1ccc(CN(C)C[C@H]2OCCCC[C@@H](C)Oc3ccc(NC(=O)Cc4ccccc4)cc3C(=O)N([C@@H](C)CO)C[C@@H]2C)cc1 | inactive | inactive | inactive
19 | NCCCC[C@@H](N)C(=O)N[C@@H](Cc1c[nH]c2ccccc12)C(=O)N[C@@H](CCCCN)C(=O)O | inactive | inactive | inactive
20 | CN1C(=O)c2cc(NC(=O)Cc3cccs3)ccc2OC[C@H]2O[C@H](CC(=O)NCCc3ccncc3)CC[C@H]21 | inactive | inactive | inactive
21 | Cc1ccc(S(=O)(=O)N(C)C[C@H]2Oc3ccc(NC(=O)Cn4cnnn4)cc3CC(=O)N([C@@H](C)CO)C[C@H]2C)cc1 | inactive | inactive | inactive
22 | COCC(=O)N(C)C[C@H]1Oc2cc(-c3ccc(C#N)cc3)ccc2S(=O)(=O)N([C@@H](C)CO)C[C@H]1C | inactive | inactive | inactive
23 | NCc1ccc(C(N)=O)cc1 | inactive | inactive | inactive
24 | C[C@@H]1CN([C@H](C)CO)C(=O)Cc2cc(NS(C)(=O)=O)ccc2O[C@H]1CN(C)Cc1ccc(C(=O)Nc2ccccc2N)cc1 | inactive | inactive | inactive
25 | C[C@@H]1CCCCO[C@@H](CN(C)C(=O)C2CCCCC2)[C@H](C)CN([C@H](C)CO)C(=O)c2cc(NC(=O)CCC(F)(F)F)ccc2O1 | inactive | inactive | inactive
26 | C[C@@H]1CN([C@@H](C)CO)C(=O)CCCn2nncc2CO[C@@H]1CN(C)C(=O)Nc1ccc(C(C)(C)C)cc1 | inactive | inactive | inactive
